# Experimental data from article PMC9911399, “Two distinct binding modes provide the RNA-binding protein RbFox with extraordinary sequence specificity”.
# Numbering of substitutions follows the chain as printed; changes in the protein carry UniProt numbers. The list shows a part of the results.
# T1: RBFOX1 RRM RbFoxmut (Fox-RRM*) (Homo sapiens, UniProt Q9NWB1 109-208, R118D;E147R;N151S;E152T)
# T1 sequence: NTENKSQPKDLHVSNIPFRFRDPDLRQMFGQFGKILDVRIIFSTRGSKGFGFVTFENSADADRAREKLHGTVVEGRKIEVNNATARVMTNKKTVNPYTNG
# B1: GUCGCAC (DNA:RNA)
# RNA: GGGAGACCGGAAUUCAGAUUGUCCGUCGCACUUAAAUCCCGUCGUAGCCACCA
# DNA 1: CAATCTGAATTCCGGTCTCCC
# DNA 2: TGGTGGCTACGACGGGATT
# B2: CGCGGAG (DNA:RNA)
# RNA: B1 RNA with G25C, U26G, C29G, C31G
# DNA 1: CAATCTGAATTCCGGTCTCCC
# DNA 2: TGGTGGCTACGACGGGATT
# B3: GCUGGGA (DNA:RNA)
# RNA: B1 RNA with U26C, C27U, C29G, A30G, C31A
# DNA 1: CAATCTGAATTCCGGTCTCCC
# DNA 2: TGGTGGCTACGACGGGATT
# B4: AGAGCAG (DNA:RNA)
# RNA: B1 RNA with G25A, U26G, C27A, C31G
# DNA 1: CAATCTGAATTCCGGTCTCCC
# DNA 2: TGGTGGCTACGACGGGATT
# B5: AUUUCUG (DNA:RNA)
# RNA: B1 RNA with G25A, C27U, G28U, A30U, C31G
# DNA 1: CAATCTGAATTCCGGTCTCCC
# DNA 2: TGGTGGCTACGACGGGATT
# B6: GACGUAA (DNA:RNA)
# RNA: B1 RNA with U26A, C29U, C31A
# DNA 1: CAATCTGAATTCCGGTCTCCC
# DNA 2: TGGTGGCTACGACGGGATT
# B7: CACUAGG (DNA:RNA)
# RNA: B1 RNA with G25C, U26A, G28U, C29A, A30G, C31G
# DNA 1: CAATCTGAATTCCGGTCTCCC
# DNA 2: TGGTGGCTACGACGGGATT
# B8: CGGUUUC (DNA:RNA)
# RNA: B1 RNA with G25C, U26G, C27G, G28U, C29U, A30U
# DNA 1: CAATCTGAATTCCGGTCTCCC
# DNA 2: TGGTGGCTACGACGGGATT
# B9: AUAAUGU (DNA:RNA)
# RNA: B1 RNA with G25A, C27A, G28A, C29U, A30G, C31U
# DNA 1: CAATCTGAATTCCGGTCTCCC
# DNA 2: TGGTGGCTACGACGGGATT
# B10: UGGUAAA (DNA:RNA)
# RNA: B1 RNA with G25U, U26G, C27G, G28U, C29A, C31A
# DNA 1: CAATCTGAATTCCGGTCTCCC
# DNA 2: TGGTGGCTACGACGGGATT
# B11: AGAAAGC (DNA:RNA)
# RNA: B1 RNA with G25A, U26G, C27A, G28A, C29A, A30G
# DNA 1: CAATCTGAATTCCGGTCTCCC
# DNA 2: TGGTGGCTACGACGGGATT
# B12: CACCGUU (DNA:RNA)
# RNA: B1 RNA with G25C, U26A, G28C, C29G, A30U, C31U
# DNA 1: CAATCTGAATTCCGGTCTCCC
# DNA 2: TGGTGGCTACGACGGGATT
# B13: CUCUGGC (DNA:RNA)
# RNA: B1 RNA with G25C, G28U, C29G, A30G
# DNA 1: CAATCTGAATTCCGGTCTCCC
# DNA 2: TGGTGGCTACGACGGGATT
# B14: GGAUGUA (DNA:RNA)
# RNA: B1 RNA with U26G, C27A, G28U, C29G, A30U, C31A
# DNA 1: CAATCTGAATTCCGGTCTCCC
# DNA 2: TGGTGGCTACGACGGGATT
# B15: AGGCAAC (DNA:RNA)
# RNA: B1 RNA with G25A, U26G, C27G, G28C, C29A
# DNA 1: CAATCTGAATTCCGGTCTCCC
# DNA 2: TGGTGGCTACGACGGGATT
# B16: UAACGUC (DNA:RNA)
# RNA: B1 RNA with G25U, U26A, C27A, G28C, C29G, A30U
# DNA 1: CAATCTGAATTCCGGTCTCCC
# DNA 2: TGGTGGCTACGACGGGATT
# B17: CGAUGUC (DNA:RNA)
# RNA: B1 RNA with G25C, U26G, C27A, G28U, C29G, A30U
# DNA 1: CAATCTGAATTCCGGTCTCCC
# DNA 2: TGGTGGCTACGACGGGATT
# B18: ACGCUUC (DNA:RNA)
# RNA: B1 RNA with G25A, U26C, C27G, G28C, C29U, A30U
# DNA 1: CAATCTGAATTCCGGTCTCCC
# DNA 2: TGGTGGCTACGACGGGATT
# B19: CAUGGCA (DNA:RNA)
# RNA: B1 RNA with G25C, U26A, C27U, C29G, A30C, C31A
# DNA 1: CAATCTGAATTCCGGTCTCCC
# DNA 2: TGGTGGCTACGACGGGATT
# B20: AACCUCG (DNA:RNA)
# RNA: B1 RNA with G25A, U26A, G28C, C29U, A30C, C31G
# DNA 1: CAATCTGAATTCCGGTCTCCC
# DNA 2: TGGTGGCTACGACGGGATT
# B21: UGUUACG (DNA:RNA)
# RNA: GGGAGACCGGAAUUCAGAUUGUCCUGUUACGUUAAAUCCCGUCGUAGCCACCA
# DNA 1: CAATCTGAATTCCGGTCTCCC
# DNA 2: TGGTGGCTACGACGGGATT
# B22: ACUACCC (DNA:RNA)
# RNA: B1 RNA with G25A, U26C, C27U, G28A, A30C
# DNA 1: CAATCTGAATTCCGGTCTCCC
# DNA 2: TGGTGGCTACGACGGGATT
# B23: UGUAACC (DNA:RNA)
# RNA: B21 RNA with U28A, G31C
# DNA 1: CAATCTGAATTCCGGTCTCCC
# DNA 2: TGGTGGCTACGACGGGATT
# B24: CCCGGAC (DNA:RNA)
# RNA: B1 RNA with G25C, U26C, C29G
# DNA 1: CAATCTGAATTCCGGTCTCCC
# DNA 2: TGGTGGCTACGACGGGATT
# B25: GUGAGAA (DNA:RNA)
# RNA: B1 RNA with C27G, G28A, C29G, C31A
# DNA 1: CAATCTGAATTCCGGTCTCCC
# DNA 2: TGGTGGCTACGACGGGATT
# B26: AUCCCAA (DNA:RNA)
# RNA: B1 RNA with G25A, G28C, C31A
# DNA 1: CAATCTGAATTCCGGTCTCCC
# DNA 2: TGGTGGCTACGACGGGATT
# B27: UGUACAA (DNA:RNA)
# RNA: B21 RNA with U28A, A29C, C30A, G31A
# DNA 1: CAATCTGAATTCCGGTCTCCC
# DNA 2: TGGTGGCTACGACGGGATT
# B28: GCUAGUA (DNA:RNA)
# RNA: B1 RNA with U26C, C27U, G28A, C29G, A30U, C31A
# DNA 1: CAATCTGAATTCCGGTCTCCC
# DNA 2: TGGTGGCTACGACGGGATT
# B29: AUGGAGG (DNA:RNA)
# RNA: B1 RNA with G25A, C27G, C29A, A30G, C31G
# DNA 1: CAATCTGAATTCCGGTCTCCC
# DNA 2: TGGTGGCTACGACGGGATT
# B30: GGCCCCA (DNA:RNA)
# RNA: B1 RNA with U26G, G28C, A30C, C31A
# DNA 1: CAATCTGAATTCCGGTCTCCC
# DNA 2: TGGTGGCTACGACGGGATT
# B31: UCAUAUA (DNA:RNA)
# RNA: B21 RNA with G26C, U27A, C30U, G31A
# DNA 1: CAATCTGAATTCCGGTCTCCC
# DNA 2: TGGTGGCTACGACGGGATT
# Biological target: T1, RBFOX1 RRM RbFoxmut (Fox-RRM*)
# Experiment: EMSA; HiTS-Eq, 1 nM pool, 10 min; buffer printed only for the single-RNA assays: 10 mM Tris pH 7.5, 150 mM NaCl, 3.4 mM EDTA, 0.001% NP-40, 30 C
# Conditions: tags: His6 N-terminal (pET28a); label: 5' 32P
# In short: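 A pool of RNA with 7 randomized nucleotides, 5′-radiolabelled and with DNA-annealed flanks, was equilibrated at 1 nM for 10 min in 50 µL with purified RbFox RRM, wild type or mutant, across increasing protein concentrations. Free RNA was separated by 8% native PAGE, excised, reverse-transcribed, barcoded by PCR and sequenced. Relative association constants were obtained from read-count changes of each RNA species versus the control reaction and normalised to the cognate motif.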
row,Binder,binding signal
1,B1,0.0943 KA relative to UGCAUGU
2,B2,0.123 KA relative to UGCAUGU
3,B3,0.0829 KA relative to UGCAUGU
4,B4,0.0918 KA relative to UGCAUGU
5,B5,0.0727 KA relative to UGCAUGU
6,B6,0.125 KA relative to UGCAUGU
7,B7,0.0811 KA relative to UGCAUGU
8,B8,0.15 KA relative to UGCAUGU
9,B9,0.135 KA relative to UGCAUGU
10,B10,0.0843 KA relative to UGCAUGU
11,B11,0.108 KA relative to UGCAUGU
12,B12,0.0894 KA relative to UGCAUGU
13,B13,0.115 KA relative to UGCAUGU
14,B14,0.285 KA relative to UGCAUGU
15,B15,0.0666 KA relative to UGCAUGU
16,B16,0.0579 KA relative to UGCAUGU

row,Binder,binding signal
1,B17,0.178 KA relative to UGCAUGU
2,B18,0.0771 KA relative to UGCAUGU
3,B19,0.141 KA relative to UGCAUGU
4,B20,0.0977 KA relative to UGCAUGU
5,B21,0.334 KA relative to UGCAUGU
6,B22,0.0857 KA relative to UGCAUGU
7,B23,0.077 KA relative to UGCAUGU
8,B24,0.0829 KA relative to UGCAUGU
9,B25,0.123 KA relative to UGCAUGU
10,B26,0.124 KA relative to UGCAUGU
11,B27,0.0527 KA relative to UGCAUGU
12,B28,0.126 KA relative to UGCAUGU
13,B29,0.119 KA relative to UGCAUGU
14,B30,0.091 KA relative to UGCAUGU
15,B31,0.154 KA relative to UGCAUGU
